Reference: PubChem BioAssay AID1745853 (National Center for Advancing Translational Sciences (NCATS), 2022)
The list shows a part of the results. Shown are side measurements of this screen, not its main read-out; they come without a call.

How the values were obtained:
Assay in all cases: Primary Screen for Target Class Profiling of Small Molecule Inhibitors of Methyltransferases
[1] = target: Glycine N-methyltransferase (Homo sapiens) (UniProt Q14749); conditions: purified enzyme, MTase-Glo SAH luminescence; measured here: GNMT inhibition; at 40 µM; stronger effect = lower value
Method in brief: (§1)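 Each enzyme was assayed with SAM and its substrate. SAH formation detected by MTase-Glo luminescence; single-point 40 uM screen[…].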

[2] = target: Guanidinoacetate N-methyltransferase (Homo sapiens) (UniProt Q14353); conditions: purified enzyme, MTase-Glo SAH luminescence; measured here: GAMT inhibition; at 40 µM; stronger effect = lower value
Method in brief: as §1

[3] = target: Histamine N-methyltransferase (Homo sapiens) (UniProt P50135); conditions: purified enzyme, MTase-Glo SAH luminescence; measured here: HNMT inhibition; at 40 µM; stronger effect = lower value
Method in brief: as §1

[4] = target: Nicotinamide N-methyltransferase (Homo sapiens) (UniProt P40261); conditions: purified enzyme, MTase-Glo SAH luminescence; measured here: NNMT inhibition; at 40 µM; stronger effect = lower value
Method in brief: as §1

[5] = target: Phenylethanolamine N-methyltransferase (Homo sapiens) (UniProt P11086); conditions: purified enzyme, MTase-Glo SAH luminescence; measured here: PNMT inhibition; at 40 µM; stronger effect = lower value
Method in brief: as §1
On the % scale 0 is the no-effect control and ±100 the full control effect.

SMILES | activity change, negative = inhibition [1] [%] | activity change, negative = inhibition [2] [%] | activity change, negative = inhibition [3] [%] | activity change, negative = inhibition [4] [%] | activity change, negative = inhibition [5] [%]
COc1ccc2cc(-c3nc(-c4ccc(S(C)=O)cc4)[nH]c3-c3ccncc3)ccc2c1 (stereo not drawn) | -14.2 | 14.7 | -6.58 | -18.1 | -0.725
Cc1cncc2cccc(S(=O)(=O)N3CCCN(C(=O)CN)C[C@@H]3C)c12 | -6.87 | -2 | 4.38 | -17.6 | -0.887
CCOc1cccc(CN(C)C(=O)CN2CC3(CCN(C)CC3)CC2=O)c1 | 1.32 | 2.15 | 0.447 | 2.51 | 1.27
Cc1nc(C#Cc2ccnc(Cl)c2)c(C)n1-c1ccc(OC(F)(F)F)cc1 | -35.7 | -18 | -38.9 | -49.6 | -29.7
CCc1cccc(NC(=O)Cn2nc3n(C(C)C)c(=O)c4ccc(C(=O)NC(C)C)cc4n3c2=O)c1 | 1.25 | 0 | 0.778 | 1.81 | 4.12
CCOc1ccc(CCN2C(=O)c3ccc(-c4ccco4)n3CC2(C)C(=O)NCc2ccccc2)cc1OCC (stereo not drawn) | -2.74 | 6.41 | 4.33 | -4.42 | 0.774
CC1=CC(=O)C2C(C)(C)CCC[C@]2(C)[C@H]1CO (stereo partly drawn) | -3.01 | -4.86 | 7.39 | -18.7 | -6.76
CCCCOc1nc(N)c2c(n1)N(Cc1cccc(CN3CCCC3)c1)CC(=O)N2 | -8.1 | -1.99 | -43.6 | -25.7 | -5.08
CN(Cc1cc(C2CC2)n[nH]1)c1cc(C2CC(N)C2)nc(N)n1 (stereo not drawn) | -0.384 | 1.98 | -15.2 | -6.98 | 11.8
CN(C)c1cccc(-c2c3c(=O)n(-c4ccccc4Cl)[nH]c3cc(=O)n2C)c1 | -7.88 | -13.1 | 0.082 | -32.9 | -5.13
Cc1ccc(Nc2ncc(C(=O)N3CCN(c4ccc(F)cc4)CC3)c3ccccc23)cc1Cl |  | -28 |  | -38.7 | -11.4
O=c1[nH]c2ccc(S(=O)(=O)NCCO)cc2[nH]1 | -3.65 | 0.562 | -3.28 | 3.05 | -10.2
O=C(Cn1c(=O)oc2cc(S(=O)(=O)N3CCCC3)ccc21)Nc1ccc(F)c(Cl)c1 | -3.07 | 6.09 | 4.04 | -1.77 | -46.6
COC(=O)C1=C(C)NC(C)=C(C(=O)OCCN(C)Cc2ccccc2)C1c1cccc([N+](=O)[O-])c1 (stereo not drawn) | 0.476 | 14.2 | 5.25 | -6.01 | -0.219
CC(C)(C)C(=O)N1CC[C@@H](CC(=O)O)[C@@H](CCN2CCC[C@H]2C(N)=O)C1 | -1.99 | -4.31 | -1.51 | -2.58 | -5.04
Oc1ccc(NCCN2CCCC2)cc1 | -77.4 | -65.3 | -43.4 | -26.7 | -68.4
CN1C(=O)c2cc(C(=O)NCCCc3ccccc3)nn2CC1(C)C(=O)NC1CCCCC1 (stereo not drawn) | 1.67 | 0 | 5.45 | 5.79 | 2.23
CCOC(=O)c1cc2n(n1)CC(C)(C(=O)NCc1ccccc1OC)N(c1cccc(F)c1)C2=O (stereo not drawn) | 8.32 | 0.064 | 11.7 | 8.08 | 8.42
COCCNC(=O)C1CC(c2ccccc2)CN(C(=O)NCc2ccccc2)C1 (stereo not drawn) | 1.52 | 1.31 | 3.64 | -3.51 | 2.06
CC(=O)c1ccc(O[C@@H]2OC[C@@H](O)[C@H](O)[C@H]2O[C@]2(CO)O[C@H](CO)[C@@H](O)[C@@H]2O)c(O)c1 | 7.13 | 4.57 | 9.27 | -5.63 | 0.292
CCCn1c(=O)c2cc(Cl)ccc2n2c(SCc3ccccc3F)nnc12 | -18.7 | 1.82 | 7.95 | -7.13 | 4.39
O=C(NCc1ccc(Cl)cc1)c1ccc2cc[nH]c2n1 | -13.6 | -9.73 | -5.43 | -19.4 | -22.5
O=C(O)C1CN(C(=O)c2ccco2)CCN(C2CCOCC2)C1 (stereo not drawn) | -2.69 | -4.86 | -0.151 | -4.07 | -3.97
Cn1cc(-c2[nH]c3cc(NC(=O)[C@H](N)C4CCCCC4)cc4c3c2C=NNC4=O)cn1 | -2.07 | 12 | 2.69 | -9.88 | 3.74
O=C(NCc1ccc2c(c1)OCO2)C1NCCc2[nH]cnc21 (stereo not drawn) | 1.68 | 1.67 | -0.565 | -1.75 | 16
O=C(c1cccs1)N1CCN2CCS(=O)(=O)N(C3CC3)C(=O)C2C1 (stereo not drawn) | -5.13 | -5.58 | -2.34 | -15.1 | -4.17
COc1cccc(CN2C(=O)c3nc4ccccc4n3CC2(C)C(=O)NC2CCCC2)c1 (stereo not drawn) | 0.021 | 3.97 | 0.138 | -3.74 | -1.94
CN1CCc2cc(Cl)c(O)cc2[C@@H](c2cccc3c2OCC3)C1 | 2.74 | 6.91 | -5.27 | -12.7 | -1.25
O=c1[nH]nc(OCCCc2ccc(Cl)cc2)c(NCc2cccnc2)c1Br | -8.5 | 1.89 | -10.9 | -42.5 | -5.64
CC1(C)CNc2cc(NC(=O)c3cccnc3NCc3ccncc3)ccc21 | -7.01 | -4.25 | -48.5 | -18.1 | -6.73
